According to PubChem BioAssay AID1963576 (National Center for Advancing Translational Sciences (NCATS), 2024):
About 60 (0.1%) of roughly 46,000 compounds were called active. Inconclusive results (about 3%) are left out. Calls come from the whole dose curve; as a rule, active = well fitted inhibition curve with a large enough effect; inconclusive = small, poorly fitted or top-dose-only effect; inactive = no such curve, though single readings can be large or run the other way. This is one part of the list.

Experiment: Primary qHTS assay for Inhibitors of ovarian cancer metastasis using an organotypic tumor microenvironment (TME) model.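 For activity change, negative = inhibition: plate controls were DMSO wells for no effect and tomatine positive control wells for full effect.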 Note: nearly all actives have a fitted effect of over 65% in size.
Conditions: SKOV3ip1-GFP adhesion/invasion on 3D omental model, fluorescence; series mostly up to 45.8 µM; activity change, negative = inhibition: at the top concentration
Outline: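 qHTS, 4-pt dose (0.36-46 umol/L); SKOV3ip1-GFP, 1,200 cells/well, no FBS; primary omental fibroblast/mesothelial co-culture 48 h pre-grown; 2 h RT + 16 h 37 C; PBS wash, 4% PFA; GFP count 488/509 nm.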

Activity change, negative = inhibition, inactive:
CCOC(=O)c1ccccc1NC(=O)CSc1cn(CC(=O)N2CCCCCC2)c2ccccc12 1.69%, Cc1oc2ncnc(N3CCCCC3)c2c1C(=O)N1CCN(c2ccc(Cl)cc2)CC1 -2.49%, COc1ccccc1C(=O)Nc1ccc(S(=O)(=O)Nc2nc(C)cc(C)n2)cc1 -2.73%, CCc1ccc(NC(=O)CCCc2nnc3n(C(C)CC)c(=O)c4sccc4n23)cc1 (stereo not given) -9.24%, CCCCN(CC)CCNC(=O)c1nn(C)c2c1CS(=O)(=O)c1ccccc1-2 -1.23%, COc1ccc2c(CNCc3cccs3)c(C(=O)O)n(Cc3cccc(F)c3)c2c1 3.23%, COC(=O)c1ccccc1NC(=O)c1sc2nc(C)cc(C)c2c1NC(=O)c1ccccc1Cl -4.51%, COc1ccc(CNC(=O)c2cc(C3CC3)nc3c2c(C)nn3-c2cccc(Cl)c2C)cc1 2.58%, COc1ccc(CNC(=O)Cn2ccc3cc(S(=O)(=O)N4CCCC4)ccc32)c(OC)c1 5.91%, COc1ccc(OC)c(-c2nnc3n(CCc4ccccc4)c(=O)c4ccccc4n23)c1 -2.86%, Cc1cccc(C(=O)Nc2ccc3nc(SCC(=O)N4CCc5ccccc54)sc3c2)c1 -5.85%, COc1cc(NC(=O)c2nc(-c3ccc(Cl)cc3)n3c2CCCCC3)cc(OC)c1OC 1.14%, O=C(Cc1ccccc1)Nc1sc2c(c1C(=O)Nc1ccccc1Cl)CCCC2 -32%, COc1ccc(NC(=O)c2ncoc2-c2ccco2)cc1Cl -18.8%, CC(CNC(=O)c1ccc2nc(CCc3ccccc3)oc2c1)c1ccccc1 (stereo not given) -1.84%, CCOc1ccc2oc(=O)cc(CN3CCN(C(=O)c4cccc(Cl)c4)CC3)c2c1 5.39%, COc1ccc(CNC(=O)c2ccc(NC(=O)N3CCSc4ncccc43)cc2)c(OC)c1 3.52%, Clc1ccc2ncc(-c3cccc(NC4CNC4)n3)n2c1 20.1%, COC(=O)c1ccccc1NC(=O)Cn1c(=O)cc(-c2ccccc2)c2c(C)nn(C)c21 0.857%, CCN(CC)C(=O)Cn1c(=O)n(CCCCCC(=O)Nc2ccccc2)c(=O)c2sccc21 -8.44%, Cc1ccc(NC(=O)C2CCCN2S(=O)(=O)c2cccc3nsnc23)c(Br)c1 (stereo not given) -5.2%, Cc1ccc2oc(=O)c3cc(C(=O)NCc4ccc(Cl)cc4)sc3c2c1 4.35%, Cc1ccc(CN2CCc3nc(N4CCN(c5ccccc5F)CC4)ncc3C2)s1 -1.18%, C#CCC(Cc1cnc2nc(N)nc(N)c2n1)c1ccc(C(=O)N[C@@H](CCC(=O)O)C(=O)O)cc1 (stereo not given in full) 20.2%, Cc1cccc(C)c1NC(=O)CCS(=O)(=O)c1ccc2c(c1)n(C)c(=O)c(=O)n2C -5.14%, COc1ccc(-c2csc3nc(-c4ccc(F)cc4)oc(=O)c23)cc1OC 1.88%, COc1ccc(CNC(=O)c2ccc(NC(=O)N3CCCCc4ccccc43)cc2)c(OC)c1 3.31%, COc1ccc(CNC(=O)C(=O)Nc2ccccc2OC)cc1 5.72%, COC(=O)c1sc(S(=O)(=O)N2CCN(c3ccc(OC)cc3)CC2)c(C(=O)OC)c1C -0.314%, CCC(=O)N1CCc2cc(Br)cc(S(=O)(=O)CCC(=O)NCc3ccc(C)cc3)c21 6.42%, Cc1cc(O)c(C(c2ccccc2)N2CCN(c3ccccc3F)CC2)c(=O)n1Cc1ccco1 (stereo not given) -0.378%, O=C(c1ccccc1)c1ccc2n1CCC2C(=O)O (stereo not given) -1.49%, Cc1ccc(-c2nc3ccccc3[nH]2)cc1NC(=O)COc1ccc(Cl)cc1Cl -9.91%, COc1cc(NC(=O)CN2C(=O)C(c3ccc(C)cc3)=NC23CCCCCC3)cc(OC)c1 -5.42%, COc1ccc(-n2nc3c(c2NC(=O)C(=O)NCc2ccccc2)CSC3)cc1 1.18%, Cc1ccc(CN2C(=O)CC(c3ccc(Cl)cc3)c3c(C)nn(-c4nc(C)cc(C)n4)c32)cc1 (stereo not given) 9.96%, CCCC(=O)Nc1nc2c(s1)CC(C(C)(C)C)CC2 (stereo not given) 2.83%, CC1(C)N=C(c2ccc(F)cc2)C(=O)N1CC(=O)Nc1ccccc1Cl 0.634%, COc1ccc(-n2c(=O)c3ccc(C(=O)NCc4ccc(C)cc4)cc3n(Cc3ccc(F)cc3Cl)c2=O)cc1 -7.29%, COc1c(N2CCNC(C)C2)c(F)cc2c(=O)c(C(=O)O)cn(C3CC3)c12 (stereo not given) 12.1%, CCOc1ccc(-n2c(=O)c3c(C)c(C)sc3n(Cc3c(F)cccc3Cl)c2=O)cc1 2.39%, COC(=O)c1ccc(NC(=O)CSc2nccn2Cc2ccc(Cl)cc2)cc1 -13.4%, COC(=O)c1cc2oc(C)cc2n1CC(=O)Nc1ccc(OC)c(OC)c1 -3.63%, Cn1c(=O)cc(SCC(=O)NCCc2ccc(Cl)cc2)c2cc(Cl)ccc21 1.85%

outcome, inactive:
Cc1ccc(NC(=O)CSc2nnc(NC(=O)NC3CCCCC3)s2)cc1, COc1ccc(-c2nc3c4ccccc4n(CC(=O)N4CCN(c5ccccc5F)CC4)c(=O)n3n2)cc1, COc1ccc(NC(=O)c2cc(C(C)=O)n3ccccc23)cc1Cl, Cc1cc(/C=C(\C#N)C(=O)Nc2ccccc2)c(C)n1-c1ccc(F)cc1, CCn1c(=O)n(-c2ccc3c(c2)OCO3)c2nc(-c3cc(OC)ccc3OC)nc(C(N)=O)c21, CCOC(=O)c1cccc(NC(=O)C2CCN(S(=O)(=O)c3c(C)noc3/C=C/c3ccc(C)cc3)CC2)c1, Cc1ccccc1C(=O)Nc1cccc(C(=O)OCc2cc(=O)n3c(C)csc3n2)c1, Cc1ccc(C)c(Nc2nn3c(=O)c4ccc(C(=O)N(C)Cc5ccccc5)cc4nc3s2)c1, CCOC(=O)c1sc2ncn(CC(=O)Nc3cc(C)cc(C)c3)c(=O)c2c1C, Cc1cc(SCC(=O)NCc2ccccc2Cl)nc(=O)[nH]1, Cc1cccc(-c2nc(C)c(CCNC(=O)C(=O)Nc3c(C)cc(C)cc3C)s2)c1, CC(=O)Nc1c(C)nn(-c2ccccc2)c1N1CCC(C(=O)Nc2ccc(Cl)cc2C)CC1, COc1ccc(OC)c(NC(=O)CSc2nccn2-c2cc(C)cc(C)c2)c1, Cc1ccc(Cn2c3ccccc3c3cnn(CC(=O)N4CCCCCC4)c(=O)c32)cc1, COc1ccc(N2CCN(C(=O)CCc3nnc4n(C)c(=O)c5sccc5n34)CC2)cc1, CCc1ccc2oc(C(=O)N(Cc3cccc(Cl)c3)Cc3ccco3)c(C)c2c1
